Source: PubChem BioAssay (NCATS)
Some of the results follow. These are further read-outs of the screen, such as a control signal, another cell line or another target. No call is given for them. Potencies come from curve fits of mixed quality, noted in brackets.
Tags give direction and shape of the fitted curve.

Assay: qHTS drug screen for cell cycle checkpoint inhibitors in PARPi-resistant BRCA-mutant ovarian cancer cell lines. (AID 1963452)
Conditions: PEO1/OlaR viability, CellTiter-Glo luminescence, 96 h; measured here: PEO1 parental viability
Source text: Women's Malignancies Branch, Center for Cancer Research (CCR),
National Cancer Institute (NCI), National Institutes of Health (NIH), Bethesda, MD
Poly (ADP-ribose) polymerase inhibitors (PARPis) have changed the treatment paradigm in breast cancer gene (BRCA) - mutant high-grade serous ovarian carcinoma (HGSC). However, most patients eventually develop resistance to PARPis, highlighting an unmet need for improved therapeutic strategies. Using high-throughput drug screens, we identified ataxia telangiectasia and rad3-related protein/checkpoint kinase 1 (CHK1) pathway inhibitors as cytotoxic and further validated the activity of the CHK1 inhibitor (CHK1i) prexasertib in PARPi-sensitive and -resistant BRCA-mutant HGSC cells and xenograft mouse models. CHK1i monotherapy induced DNA damage, apoptosis, and tumor size reduction. We then conducted a phase 2 study (NCT02203513) of prexasertib in patients with BRCA-mutant HGSC. The treatment was well tolerated but yielded an objective response rate of 6% (1 of 17; one partial response) in patients with previous PARPi treatment. […] BRCA reversion mutation in previously PARPi-treated BRCA-mutant patients was not associated with resistance to CHK1i.
Among others, 1082 oncology drugs, both approved and investigational, were prioritized based on their status in clinical trial development. […] Drugs with average Z-AUC values less than -1.0 in all three cell lines were classified as "hits" resulting in 151 oncology drug hits. The screen also confirmed cross-resistance between olaparib and other PARPis (rucaparib, niraparib, and talazoparib) in PARPi-resistant PEO1/OlaR and PEO4.
[1] G. L. Lin, K. M. Wilson, M. Ceribelli, B. Z. Stanton, P. J. Woo, S. Kreimer, E. Y. Qin, X. Zhang, J. Lennon, S. Nagaraja, P. J. Morris, M. Quezada, S. M. Gillespie, D. Y. Duveau, A. M. Michalowski, P. Shinn, R. Guha, M. Ferrer, C. Klumpp-Thomas, S. Michael, C. McKnight, P. Minhas, Z. Itkin, E. H. Raabe, L. Chen, R. Ghanem, A. C. Geraghty, L. Ni, K. I. Andreasson, N. A. Vitanza, K. E.Warren, C. J. Thomas, M. Monje, Therapeutic strategies for diffuse midline glioma from high-throughput combination drug screening. Sci. Transl. Med. 11, (2019).
[2] T. M. Yamamoto, A. McMellen, Z. L. Watson, J. Aguilera, R. Ferguson, E. Nurmemmedov, T. Thakar, G. L. Moldovan, H. Kim, D. M. Cittelly, A. M. Joglar, E. P. Brennecke, H. Wilson, K. Behbakht, M. J. Sikora, B. G. Bitler, Activation of Wnt signaling promotes olaparib resistant ovarian cancer. Mol. Carcinog. 58, 1770 - 1782 (2019).
PROTOCOL TABLE (as described by Inglese J, Shamu CE and Guy RK. 2007)
SEQUENCE No. (e.g., 1, 2, 3, etc.); […] (e.g., Cells, Incubation, Reagent, etc.); VALUE; DESCRIPTION.
1; Compounds; 20nL; 1536-well white tissue culture-treated plates.
2; Cells; 5 uL; PEO1, PEO4, and PEO1/OlaR cells at 600 cells per well.
3; Incubation; 96 hr; 37C, 95% humidity, 5% CO2.
4; Reagent; 3 uL; CellTiter-Glo (Promega).
5; Incubation; 15 min; room temperature.
6; Detection; Luminescence, PHERAstar (BMG Labtech) plate reader.
NOTES (numbers refer to Sequence numbers above)
1. MIPE 5.0 compounds were acoustically dispensed by Echo Acoustic Liquid Handler (Beckman Coulter Life Sciences). Each compound was plated at an 11-point concentration range with 1:3 dilution. Bortezomib, a proteasome inhibitor (final concentration, 20 uM), was used as a positive.
2. PEO1, PEO4, and PEO1/OlaR were trypsinized and dispensed in 5 uLof growth medium using a Multidrop Combi dispenser at a density of 600 cells per well to allow compounds to be present during the exponential growth phase.
3. Plates were incubated for 96 hours at standard incubator conditions and covered by a stainless steel gasketed lid to prevent evaporation.
4. Three microliters of CellTiter-Glo (Promega) were added to each well.
5. Plates were incubated at room temperature for 15 min with a stainless-steel lid in place.
6. Luminescence readings were taken using PHERAstar (BMG Labtech). […]
In the case of `COC(=O)[C@@]12OC[C@]34[C@H]([C@@H](O)[C@@H]1O)[C@@]1(C)CC(=O)C(O)=C(C)[C@@H]1C[C@H]3OC(=O)[C@H](OC(=O)/C=C(\C)C(C)C)[C@@H]24`, the AC50 is reported as 34.7 nM [falling, full curve].
With `C[C@@H]1CC[C@H]2[C@@H](C)C(=O)O[C@@H]3O[C@@]4(C)CC[C@@H]1[C@]32OO4` the AC50 was 1740 nM [falling, full curve, poor fit].
With `C[C@@H]1C[C@@H]([C@H](O)CC2CC(=O)NC(=O)C2)C(=O)[C@@H](C)C1` the AC50 was 1230 nM [falling, full curve].
In the case of `O=C(Nc1ccncc1)C(=O)c1cn(Cc2ccc(Cl)cc2)c2ccccc12`, the AC50 is reported as 49 nM [falling, full curve].
In the case of `CC(=O)OC[C@H]1O[C@@H]([S-])[C@H](OC(C)=O)[C@@H](OC(C)=O)[C@@H]1OC(C)=O.CC[PH+](CC)CC.[Au]`, the AC50 is reported as 1550 nM [falling, full curve].
In the case of `COc1cc(C(=O)N2CC[C@@H](O)[C@@H](N)C2)cc2nc(-c3cc4ccccc4n3CC3CC3)n(C)c12`, the AC50 is reported as 15500 nM [falling, partial curve].
With `COc1ccc2c(c[n+](C)c3c4cc5c(cc4ccc23)OCO5)c1OC` the AC50 was 24500 nM [falling, single point].
With `N[C@@H](Cc1ccc(N(CCCl)CCCl)cc1)C(=O)O` the AC50 was 692 nM [falling, full curve].
For `Cc1c(C(=O)Nc2cccc(C(F)(F)F)c2)cc(-c2ccccc2)n1CCCN1CCOCC1`, the AC50 was 17400 nM [falling, single point].
For `Cn1c(COP(=O)(NCCBr)NCCBr)cnc1[N+](=O)[O-]`, the AC50 was 3470 nM [rising, partial curve, poor fit].
With `Cc1[nH]nc2ccc(-c3cncc(OC[C@@H](N)Cc4c[nH]c5ccccc45)c3)cc12` the AC50 was 389 nM [falling, full curve].
For `C=C(C)[C@H]1Cc2c(ccc3c2O[C@@H]2COc4cc(OC)c(OC)cc4[C@@H]2C3=O)O1`, the AC50 was 15.5 nM [falling, full curve].
For `Cn1c(CCCCCCC(=O)NO)nc2cc(N(CCCl)CCCl)ccc21`, the AC50 was 13800 nM [falling, partial curve].
With `CC1(N2CCC(n3c([C@@H]4CCCNC4)nc4ccccc43)CC2)CCCCCCC1` the AC50 was 19500 nM [falling, partial curve].
For `COC12C(COC(N)=O)C3=C(C(=O)C(C)=C(N)C3=O)N1CC1C2N1C` (stereo not given), the AC50 was 616 nM [rising, full curve, poor fit].
In the case of `CC(C)C[C@H](CN)CC(=O)O`, the AC50 is reported as 3470 nM [rising, partial curve, poor fit].
With `C[C@H]1CCC/C=C/C2C[C@H](O)C[C@H]2[C@H](O)/C=C/C(=O)O1` (stereo not given in full) the AC50 was 245 nM [falling, full curve].
In the case of `CCN1CCN(C(=O)Cc2ccc(Nc3ncc(F)c(Nc4ccc(C(=O)Nc5ccccc5Cl)cc4)n3)cc2)CC1`, the AC50 is reported as 17400 nM [falling, partial curve].
For `C#CCN(C)[C@H](C)Cc1ccccc1`, the AC50 was 8710 nM [rising, partial curve, poor fit].
With `Fc1ccc(C(OCCN2CCN(CCCc3ccccc3)CC2)c2ccc(F)cc2)cc1` the AC50 was 12300 nM [falling, partial curve].
For `CC(C)[C@]12O[C@H]1[C@@H]1O[C@@]13[C@@]1(C)CCC4=C(COC4=O)[C@@H]1C[C@@H]1O[C@@]13C2=O`, the AC50 was 275 nM [falling, full curve].

Same assay, conditions: PEO1/OlaR viability, CellTiter-Glo luminescence, 96 h; measured here: PEO4 viability
With `COC(=O)[C@@]12OC[C@]34[C@H]([C@@H](O)[C@@H]1O)[C@@]1(C)CC(=O)C(O)=C(C)[C@@H]1C[C@H]3OC(=O)[C@H](OC(=O)/C=C(\C)C(C)C)[C@@H]24` the AC50 was 27.5 nM [falling, full curve].
With `Cc1ncc(OC[C@@]2(c3cccc(F)c3)C[C@H]2C(=O)Nc2ccc(F)cn2)c(C)n1` the AC50 was 1950 nM [rising, partial curve, poor fit].
In the case of `C[C@@H]1C[C@@H]([C@H](O)CC2CC(=O)NC(=O)C2)C(=O)[C@@H](C)C1`, the AC50 is reported as 1230 nM [falling, full curve].
For `O=C(Nc1ccncc1)C(=O)c1cn(Cc2ccc(Cl)cc2)c2ccccc12`, the AC50 was 21.9 nM [falling, full curve].
In the case of `CCN(CC)C(=O)c1ccc(C2=CC3(CCNCC3)Oc3cccc(O)c32)cc1`, the AC50 is reported as 15.5 nM [falling, full curve].
For `CC(=O)OC[C@H]1O[C@@H]([S-])[C@H](OC(C)=O)[C@@H](OC(C)=O)[C@@H]1OC(C)=O.CC[PH+](CC)CC.[Au]`, the AC50 was 692 nM [falling, full curve].
In the case of `COc1cc(C(=O)N2CC[C@@H](O)[C@@H](N)C2)cc2nc(-c3cc4ccccc4n3CC3CC3)n(C)c12`, the AC50 is reported as 21900 nM [falling, partial curve].
With `NCC1(CC(=O)O)CCCCC1` the AC50 was 6920 nM [rising, partial curve, poor fit].
In the case of `COc1ccc2c(c[n+](C)c3c4cc5c(cc4ccc23)OCO5)c1OC`, the AC50 is reported as 27500 nM [falling, single point].
In the case of `N[C@@H](Cc1ccc(N(CCCl)CCCl)cc1)C(=O)O`, the AC50 is reported as 871 nM [falling, full curve, poor fit].
With `Cc1c(C(=O)Nc2cccc(C(F)(F)F)c2)cc(-c2ccccc2)n1CCCN1CCOCC1` the AC50 was 17400 nM [falling, partial curve].
With `Cc1[nH]nc2ccc(-c3cncc(OC[C@@H](N)Cc4c[nH]c5ccccc45)c3)cc12` the AC50 was 138 nM [falling, full curve].
In the case of `C=C(C)[C@H]1Cc2c(ccc3c2O[C@@H]2COc4cc(OC)c(OC)cc4[C@@H]2C3=O)O1`, the AC50 is reported as 87.1 nM [falling, full curve].
In the case of `Cn1c(CCCCCCC(=O)NO)nc2cc(N(CCCl)CCCl)ccc21`, the AC50 is reported as 13800 nM [falling, partial curve].
With `CC1(N2CCC(n3c([C@@H]4CCCNC4)nc4ccccc43)CC2)CCCCCCC1` the AC50 was 17400 nM [falling, single point].
With `C[C@H]1CCC/C=C/C2C[C@H](O)C[C@H]2[C@H](O)/C=C/C(=O)O1` (stereo not given in full) the AC50 was 174 nM [falling, full curve].
For `CCN1CCN(C(=O)Cc2ccc(Nc3ncc(F)c(Nc4ccc(C(=O)Nc5ccccc5Cl)cc4)n3)cc2)CC1`, the AC50 was 1380 nM [falling, full curve].
With `Fc1ccc(C(OCCN2CCN(CCCc3ccccc3)CC2)c2ccc(F)cc2)cc1` the AC50 was 13800 nM [falling, partial curve].
In the case of `CC(C)[C@]12O[C@H]1[C@@H]1O[C@@]13[C@@]1(C)CCC4=C(COC4=O)[C@@H]1C[C@@H]1O[C@@]13C2=O`, the AC50 is reported as 77.6 nM [falling, full curve].
